Data on 26 compounds can be found in PubChem BioAssay AID485344 (National Center for Advancing Translational Sciences (NCATS), 2010).

Out of some 340,000 compounds screened, about 6,900 (2%) were called active. Cut-off read from the data, not from the text of the source: active = inhibition above about 30%; inactive = below that, where a call was filed. Only a part is listed here, and it is no random draw. Entries without a call were filed so in the source.

Chain of UniProt P14416 (P14416 whole entry, looked up): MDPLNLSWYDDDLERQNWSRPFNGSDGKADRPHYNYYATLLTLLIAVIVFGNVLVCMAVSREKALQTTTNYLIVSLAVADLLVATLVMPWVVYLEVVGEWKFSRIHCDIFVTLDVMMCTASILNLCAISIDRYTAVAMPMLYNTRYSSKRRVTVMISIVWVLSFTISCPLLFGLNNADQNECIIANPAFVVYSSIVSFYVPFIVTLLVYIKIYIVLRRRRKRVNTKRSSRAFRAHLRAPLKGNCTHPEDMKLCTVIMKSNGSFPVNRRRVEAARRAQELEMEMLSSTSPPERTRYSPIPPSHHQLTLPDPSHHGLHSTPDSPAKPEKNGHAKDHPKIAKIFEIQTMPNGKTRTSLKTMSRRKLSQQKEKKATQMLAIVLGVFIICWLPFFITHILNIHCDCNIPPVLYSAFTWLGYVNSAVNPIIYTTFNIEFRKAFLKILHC

The target of this experiment is D(2) dopamine receptor (Homo sapiens) (UniProt P14416). Description: HTS Assay for Allosteric Antagonists of the Human D2 Dopamine Receptor: Primary Screen for Antagonists. Note: 0% is about no effect. To be noted: HEK293 TREx D2 cells, calcium flux, dopamine EC80; at 10 µM; stronger effect = higher value. A digest of the protocol:
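Measurement of antagonist activity uses fluorescent calcium dye in inducible HEK293 T-REx D2 cells: 10 s baseline, compound addition with 180 s read, EC80 dopamine addition with a further 180 s read.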
In the case of `OC(COCc1ccc(Cl)cc1)CN1CCN(c2ccccn2)CC1` (stereo unspecified), the inhibition is active: 83.9%.
Next, `Cc1cccc(OCC(=O)Nc2ccc(Cl)c(-c3nc4ccccc4[nH]3)c2)c1`: 2.93%; `CCc1ccccc1NC(=O)CSc1ncc(S(=O)(=O)c2ccccc2)c(=O)[nH]1`: -10.7%.
Next, `CCN1CCN(Cc2c(O)ccc3oc(C)c(C(=O)Nc4ccc(C)cc4C)c23)CC1`: -0.0286%; `CC1=C(c2ccc(C)c(C)c2)S(=O)(=O)N=C1N1CCC(C(=O)Nc2cccc(F)c2)CC1`: 8.1%; `COc1ccccc1NC(=O)Cn1c(=O)n(-c2cccc(Cl)c2)c(=O)c2c1c1cc(C)ccc1n2C`: 9.06%.
Next, `COc1cccc(NC(=O)CSc2nnc(-c3cccs3)o2)c1`: 0.0224%.
As for `CN1CCc2nc3sc(C(=O)Nc4cccc(C#N)c4)c(N)c3cc2C1`, the inhibition is 11.9%.
Turning to `Cc1cc(C)cc(Nc2nnc(-n3nc(C)cc3C)c3ccccc23)c1`, the inhibition was -1.36%.
Next, `CCCOc1ccc(C2c3c(-c4ccccc4O)n[nH]c3C(=O)N2CCCOCC)cc1OCC` (stereo unspecified): 15.8%.
In the case of `O=C(Nc1cccc(F)c1)c1cccc2c1C(=O)N(C1CCCCC1)C2`, the inhibition is -5.77%.
Next, `CCC(=O)N1CCCc2cc(S(=O)(=O)N3CCC(C(=O)Nc4ccccc4CC)CC3)ccc21`: 10.3%.
Next, `Cc1ccccc1Nc1cc(C(=O)NCCc2ccc(Cl)cc2)c2ccccc2n1`: 21.1%; `Cc1ccc2c(CC(=O)N(Cc3ccc(Cl)cc3)Cc3ccco3)coc2c1`: 5.56%.
Next, `COc1cc(C2c3c(oc4ccc(C)cc4c3=O)C(=O)N2Cc2ccccc2)ccc1O` (stereo unspecified): 14.6%; `Cc1oc(-c2ccc(Cl)cc2)nc1CSCC(=O)NCc1ccccc1Cl`: 13.2%; `CCC(=O)N1CCc2cc(Br)cc(S(=O)(=O)N3CCCC(C(=O)NCc4ccc(OC)cc4)C3)c21` (stereo unspecified): -1.5%.
Consider `CC(CNC(=O)Cn1c(-c2cccs2)cc2ccccc21)c1ccccc1` (stereo unspecified), for which the inhibition came out at 5.66%.
Then `COC(=O)Cc1c(C)c2ccc3c(c2oc1=O)CN(Cc1ccccc1OC)CO3`, with -2.93%.
Next, `COc1cccc(-c2nc(CS(=O)(=O)CC(=O)NCCc3ccc(OC)c(OC)c3)c(C)o2)c1`: -2.93%.
Then `Cc1ccc(C(=O)Nc2nc(-c3nnn(-c4cccc(Cl)c4C)c3C)ns2)cc1C`, with -12.6%; and `CCOC(=O)C1=C(CN2CCN(c3cccc(OC)c3)CC2)NC(=O)NC1c1ccc(OC)cc1` (stereo unspecified), with -3.3%; and `COc1ccc(NS(=O)(=O)c2ccc3c(c2)CC(C)N3C(C)=O)c(OC)c1` (stereo unspecified), with -4.4%.
`Cn1c(=O)c2c(n3ncnc13)NC(=O)CC2c1cccc(F)c1` (stereo unspecified): the inhibition is -9.04%.
Next, `Cc1ccc(-n2c(=O)c3c(cnn3C)n(CC(=O)Nc3c(C)cccc3C)c2=O)cc1`: -11.7%; `COc1ccc(NC(=O)c2oc3c(c2C)-c2nn(Cc4ccccc4Cl)cc2CC3)cc1OC`: -4.64%.

For orientation: inhibition means the drop in the measured response relative to a control, in per cent.
